Laboratory results reported in EPA's CvTdb concentration-time database.
The source gives many values for each of these; only a part stands here.

Assays:
Assay in all cases: concentration in plasma after dosing
Rat [1] = conditions: 3360 h; dosed: Perfluorooctane Sulfonate; 2 mg/kg; oral; Female; Harlan Sprague Dawley
Rat [2] = conditions: dosed: Perfluorooctane Sulfonate, 2 mg/kg, oral, Female, Harlan Sprague Dawley
Rat [3] = conditions: 864 h; dosed: Perfluorooctane Sulfonate; 20 mg/kg; oral; Male; Harlan Sprague Dawley
Rat [4] = conditions: 24 h; dosed: Perfluorooctane Sulfonate; 20 mg/kg; oral; Male; Harlan Sprague Dawley
Rat [5] = conditions: oral
Rat [6] = conditions: dosed: Perfluorodecanoic acid, 20 mg/kg, oral, Male, Harlan Sprague Dawley
Rat [7] = conditions: dosed: Perfluorodecanoic acid, 20 mg/kg, oral, Male, Harlan Sprague Dawley; remark: listed apart in the source
Rat [8] = conditions: dosed: Perfluorodecanoic acid, 10 mg/kg, oral, Female, Harlan Sprague Dawley

O=S(=O)([O-])C(F)(F)C(F)(F)C(F)(F)C(F)(F)C(F)(F)C(F)(F)C(F)(F)C(F)(F)F [Perfluorooctane Sulfonate]
Conditions | concentration in plasma [µg/mL]
Rat [1] | 0.393
Rat [3] | 28.3
Rat [4] | 88.7

Rat [2]
Conditions | concentration in plasma [µg/mL]
1 h | 3.18
528 h | 4.79

concentration in plasma [µg/mL], Rat [5], dosed: Perfluorooctane Sulfonate
Conditions | Female | Male
1 h, 2 mg/kg, Harlan Sprague Dawley | 1.97 | –
1 h, 20 mg/kg, F344 | 39.4 | 31.5
1 h, 20 mg/kg, Harlan Sprague Dawley | – | 34.1
5 min, 20 mg/kg, F344 | 0.254 | –
6 h, 2 mg/kg, Harlan Sprague Dawley | 6.52 | –
6 h, 20 mg/kg, F344 | 91.6 | –
6 h, 20 mg/kg, Harlan Sprague Dawley | – | 82.1
12 h, 2 mg/kg, Harlan Sprague Dawley | 6.17 | –
12 h, 20 mg/kg, F344 | 110 | 98
24 h, 2 mg/kg, Harlan Sprague Dawley | 7.65 | –
24 h, 20 mg/kg, F344 | 119 | –
24 h, 20 mg/kg, Harlan Sprague Dawley | – | 85.5
192 h, 2 mg/kg, Harlan Sprague Dawley | 3.55 | –
192 h, 20 mg/kg, Harlan Sprague Dawley | – | 66.4
528 h, 2 mg/kg, Harlan Sprague Dawley | 4.9 | –
528 h, 20 mg/kg, F344 | 69.2 | 35.6
864 h, 2 mg/kg, Harlan Sprague Dawley | 2.89 | –
864 h, 20 mg/kg, F344 | 42.9 | –
864 h, 20 mg/kg, Harlan Sprague Dawley | – | 26.9
1200 h, 20 mg/kg, F344 | 24.5 | 19.7
1848 h, 2 mg/kg, Harlan Sprague Dawley | 1.79 | –
1848 h, 20 mg/kg, F344 | 14.6 | –
1848 h, 20 mg/kg, Harlan Sprague Dawley | – | 13.3
2520 h, 2 mg/kg, Harlan Sprague Dawley | 0.313 | –
2520 h, 20 mg/kg, Harlan Sprague Dawley | – | 6.88
3360 h, 2 mg/kg, Harlan Sprague Dawley | 0.633 | –
3360 h, 20 mg/kg, Harlan Sprague Dawley | – | 3.02

O=C(O)C(F)(F)C(F)(F)C(F)(F)C(F)(F)C(F)(F)C(F)(F)C(F)(F)C(F)(F)C(F)(F)F [Perfluorodecanoic acid]
concentration in plasma [µg/mL], Rat [5], dosed: Perfluorodecanoic acid
Conditions | 2 mg/kg | 10 mg/kg | 20 mg/kg
0.5 h, Female, Harlan Sprague Dawley | – | 11.8 | 24.5
0.5 h, Male, Harlan Sprague Dawley | 3.03 | 9.8 | 10.8
1 h, Female, Harlan Sprague Dawley | – | 34.7 | 44.5
1 h, Male, Harlan Sprague Dawley | 5.42 | 23.1 | 29.2
2 h, Female, Harlan Sprague Dawley | – | 34.7 | 80.5
2 h, Male, Harlan Sprague Dawley | 5.62 | 24.1 | 50
6 h, Female, Harlan Sprague Dawley | 9.95 | 43 | 94.1
6 h, Male, Harlan Sprague Dawley | 6.24 | 37.3 | 77.4
12 h, Female, Harlan Sprague Dawley | – | 50.6 | 107
12 h, Male, Harlan Sprague Dawley | 10.5 | 41.5 | 80.1
24 h, Female, Harlan Sprague Dawley | – | 59.7 | 142
24 h, Male, Harlan Sprague Dawley | 9.9 | 36.7 | 71.6
24 h, Male, Harlan Sprague Dawley - this seems too small | – | 39.2 | –
192 h, Female, Harlan Sprague Dawley | – | 52.8 | 83.3
192 h, Male, Harlan Sprague Dawley | 9.63 | 27.2 | 43.6
528 h, Female, Harlan Sprague Dawley | – | 24.2 | 40.7
528 h, Male, Harlan Sprague Dawley | 2.53 | 11.9 | 29.3
864 h, Female, Harlan Sprague Dawley | 3.06 | 15.7 | 32.2
864 h, Male, Harlan Sprague Dawley | 1.42 | 11.7 | 19.7
1200 h, Female, Harlan Sprague Dawley | – | 11.7 | 27.2
1200 h, Male, Harlan Sprague Dawley | 3.04 | 5.21 | 18.6
1848 h, Female, Harlan Sprague Dawley | – | 6.64 | 15
1848 h, Male, Harlan Sprague Dawley | 1.86 | 5.37 | 7.41
2520 h, Female, Harlan Sprague Dawley | – | 5.9 | 14.8
2520 h, Male, Harlan Sprague Dawley | 0.843 | 1.84 | 6.59
3360 h, Female, Harlan Sprague Dawley | – | 2.65 | 7.64
3360 h, Male, Harlan Sprague Dawley | 0.517 | 1.89 | 4.53

Conditions | concentration in plasma [µg/mL]
Rat [6], 6 h | 77.2
Rat [6], 864 h | 17.5
Rat [7], 2 h | 56.7
Rat [7], 528 h | 26
Rat [7], 3360 h | 3.16
Rat [8], 2 h | 30.5
Rat [8], 528 h | 23.9
Rat [8], 2520 h | 5.96
